From PubChem BioAssay AID2675 (National Center for Advancing Translational Sciences (NCATS), 2010)
Among all 280,000 compounds or so, about 100 (0.036%) were called active. Inconclusive results, whose numbers are uncertain, are shown with a selection of clear calls. Calls come from the whole dose curve; as a rule, active = well fitted inhibition curve with a large enough effect in the signal ratio, with a control signal flat (not every such curve was filed as active); inconclusive = small, poorly fitted or top-dose-only effect, or effect the other way, or a change in a side signal; inactive = no such curve, though single readings can be large or run the other way; the % refers to the signal ratio. Potencies beside an inconclusive call are fits to weak or partial responses and may not hold up. A note “side channel” means that the fit belongs to a control or component signal, not to the main read-out.

Biological target: Muscleblind-like protein 1 (Homo sapiens) (UniProt Q9NR56)
Assay: qHTS Assay for Inhibitors of MBNL1-poly(CUG) RNA binding
Settings: TR-FRET MBNL1-His/biotin-(CUG)12 binding, 665/545 ratio; activity change, negative = inhibition: at 57.5 µM (top of the series)
How it was run: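 Ratiometric TR-FRET (665 over 545 nm, excitation 340 nm) tracks disruption of MBNL1-His/biotin-(CUG)12 complex after 60 min at room temperature, with compounds at 92 nM to 58 uM final.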
% is set by controls: 0 for no effect and ±100 for the full control effect; potency is the fitted concentration of half-maximal effect; tags give direction and shape of the fitted curve or compound fluorescence and quenching.

Sequence of UniProt Q9NR56 (Q9NR56 whole entry, looked up): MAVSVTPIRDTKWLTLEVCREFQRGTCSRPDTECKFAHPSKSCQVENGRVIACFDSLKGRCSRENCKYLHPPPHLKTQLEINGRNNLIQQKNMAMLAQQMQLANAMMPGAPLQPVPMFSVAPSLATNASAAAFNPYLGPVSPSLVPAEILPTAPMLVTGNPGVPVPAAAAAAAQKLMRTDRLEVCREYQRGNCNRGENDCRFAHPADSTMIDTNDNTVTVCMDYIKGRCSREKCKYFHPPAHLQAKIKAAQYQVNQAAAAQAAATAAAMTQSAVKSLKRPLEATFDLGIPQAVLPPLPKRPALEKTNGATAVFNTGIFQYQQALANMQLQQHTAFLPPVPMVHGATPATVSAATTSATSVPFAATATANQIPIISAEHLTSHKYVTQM

Row | Compound | Potency | activity change, negative = inhibition
1 | CCN(CC)c1ccc(/C=N/Nc2nn[nH]n2)cc1 | inconclusive: 39.8 µM [quencher, side channel, single point] | –
2 | CCC(CO)Nc1ccc(-c2n[nH]c(=O)c3ccccc23)cc1[N+](=O)[O-] (stereo unspecified) | inconclusive: 7.08 µM [quencher, side channel, partial curve] | –
3 | COC(=O)N/N=C/c1ccc(/C=N/NC(=O)OC)cc1 | inconclusive: 5.01 µM [quencher, side channel, full curve, poor fit] | –
4 | O=P1(c2ccccc2)C=Cn2c1cc1c2CCCC1 (stereo unspecified) | – | inactive: 10.1%
5 | CC(Sc1ccc(S(=O)(=O)N2CCOCC2)cc1[N+](=O)[O-])C(=O)O (stereo unspecified) | inconclusive: 3.55 µM [quencher, side channel, full curve] | –
6 | Cc1ccc(C(=O)N/C(=C\c2ccc(-c3ccccc3[N+](=O)[O-])o2)C(=O)NCCCN2CCOCC2)cc1 | inconclusive: 8.91 µM [quencher, full curve, poor fit] | –
7 | CC1=CC(=O)c2c(O)ccc(O)c2C1=O | inconclusive: 28.2 µM [quencher, side channel, single point] | –
8 | O=C(CNC(=O)c1ccccc1)N/N=C/c1cc(Br)ccc1O | – | inactive: 64.1%
9 | COc1cc(C(=O)NCCc2ccc(F)cc2)c([N+](=O)[O-])cc1OC | inconclusive: 0.141 µM [quencher, side channel, full curve, poor fit] | –
10 | CCOc1ccccc1NC(=O)N1C2CCCC1CC(NC(=O)C1CC1)C2 (stereo unspecified) | inconclusive: 3.55 µM [fluorescent, side channel, partial curve] | –
11 | N#C/C(=C\c1ccc[nH]1)C(=O)NCC1CCCO1 (stereo unspecified) | inconclusive: 17.8 µM [quencher, side channel, partial curve] | –
12 | N#Cc1c(SCC(=O)O)nc(-c2ccccc2)c2c1CCCC2 | – | inactive: 18.6%
13 | COc1ccc(CNC(=O)c2sc(=S)n(-c3ccc(OC)cc3)c2N)cc1 | inconclusive: 15.8 µM [quencher, side channel, partial curve] | –
14 | O=[N+]([O-])c1cc(S(=O)(=O)C(F)(F)F)ccc1Sc1nc2ccccc2[nH]1 | inconclusive: 15.8 µM [quencher, side channel, partial curve] | –
15 | Cc1nn(Cc2ccccc2)c(C)c1NC(=O)c1cc2nc(-c3ccco3)cc(C(F)(F)F)n2n1 | inconclusive: 28.2 µM [quencher, partial curve] | –
16 | O=S(=O)(NCc1nc2ccccc2[nH]1)c1ccccc1 | – | inactive: -4.72%
17 | O=C(N/N=C/c1cccc(C(F)(F)F)c1)c1ccc(O)cc1 | – | inactive: -2.94%
18 | Nc1nc(SCC(=O)c2ccc([N+](=O)[O-])cc2)n[nH]1 | inconclusive: 10 µM [quencher, side channel, partial curve] | –
19 | CC1CCCCC1NC(=O)CCS(=O)(=O)c1cccc2nonc12 (stereo unspecified) | inconclusive: 10 µM [quencher, side channel, partial curve] | –
20 | O=C(O)CCNc1cc(N2CCN(C(=O)c3ccco3)CC2)c2noc3c2c1C(=O)c1ccccc1-3 | inconclusive: 7.08 µM [quencher, side channel, partial curve] | –
21 | Cc1cccc(NC(=S)NNC(=O)c2csc(C(C)C)c2)c1 | – | inactive: 6.27%

Row | Compound | Potency | activity change, negative = inhibition
22 | CCOc1ccc(-n2c(SCc3nc(-c4cccs4)no3)nnc2-c2ccncc2)cc1 | inconclusive: 20 µM [quencher, side channel, partial curve] | –
23 | CN(c1cccc(NC(=O)c2cccc([N+](=O)[O-])c2)c1)S(C)(=O)=O | inconclusive: 11.2 µM [quencher, side channel, partial curve] | –
24 | Cc1cccc(Cc2nnc(CCC(=O)NCc3ccncc3C)o2)c1 | inconclusive: 10 µM [inhibitor, single point] | –
25 | OCC1(Cc2ccccc2Cl)CCN(C/C=C/c2ccccc2)CC1 | – | inactive: 7.45%
26 | Cc1cc(NC(=O)COc2cccnc2[N+](=O)[O-])no1 | inconclusive: 25.1 µM [quencher, side channel, partial curve] | –
27 | C/C(=N/NC(=O)CNC(=O)C1COc2ccccc2O1)c1ccc([N+](=O)[O-])cc1 (stereo unspecified) | inconclusive: 8.91 µM [quencher, side channel, partial curve] | –
28 | C(=N/Nc1nccs1)/c1cccnc1 | inconclusive: 25.1 µM [quencher, side channel, single point] | –
29 | Cc1nnc2ccc(-c3ccc(NC(=O)Cc4cccs4)cc3)nn12 | inconclusive: 12.6 µM [quencher, partial curve] | –
30 | O=[N+]([O-])c1cc(-c2ccn[nH]2)ccc1Cl | inconclusive: 15.8 µM [quencher, partial curve] | –
31 | CC(C)C1COC(c2cccn2Cc2ccccc2Cl)=N1 (stereo unspecified) | – | inactive: 0.735%
32 | CSc1cccc(NC(=S)NC(=O)c2cccnc2)c1 | – | inactive: 2.3%
33 | COc1ccc([C@H]2[C@H](C(=O)OC(C)(C)C)N3N=Cc4ccccc4C3C23C(=O)c2ccccc2C3=O)c(OC)c1 (stereo partly specified) | inconclusive: 44.7 µM [quencher, side channel, single point] | –
34 | CNC(=O)c1ccc(-c2ccc(F)cc2)s1 | inconclusive: 22.4 µM [quencher, side channel, single point] | –
35 | O=C(CN1CCN(c2ncccn2)CC1)Nc1ccccc1C(F)(F)F | inconclusive: 17.8 µM [quencher, side channel, partial curve] | –
36 | Cc1cc(C)nc(-n2nc(C)c(Br)c2Nc2ccc(Br)cc2)n1 | – | inactive: -3.8%
37 | COc1cc(/C=C(\C#N)C(=O)c2ccc(O)c(O)c2)cc(I)c1O | inconclusive: 17.8 µM [quencher, side channel, partial curve] | –
38 | O=C(CSc1ncccn1)NN=C1CCCCCCC1 | – | inactive: -4.43%
39 | CC(/C=N\NC(=O)CN1CCN(Cc2ccccc2)CC1)=C\c1ccco1 | inconclusive: 20 µM [quencher, side channel, single point] | –
40 | CCCCCCCC[n+]1cccc2c3ccccc3ccc21 | inconclusive: 14.1 µM [quencher, side channel, partial curve] | –
41 | CCOc1ccc(C(C(=O)NCC2CCCO2)N(Cc2cccnc2)C(=O)c2snc(C(N)=O)c2N)cc1 (stereo unspecified) | inconclusive: 14.1 µM [quencher, side channel, partial curve] | –
42 | COc1ccc(/C=N/Nc2nnc(C)n2N)cc1OC | inconclusive: 39.8 µM [quencher, side channel, partial curve, poor fit] | –

Row | Compound | Potency | activity change, negative = inhibition
43 | O=C(CSc1nnc(-c2ccncc2)o1)c1cccc([N+](=O)[O-])c1 | inconclusive: 3.55 µM [quencher, side channel, full curve] | –
44 | CSC1=NSC2=NC(=O)/C(=C/c3coc4ccccc4c3=O)C(=N)N12 | inconclusive: 28.2 µM [quencher, side channel, single point] | –
45 | NC(=O)CC(NC(=O)Cc1cccc2ccccc12)c1ccc(N2CCC(N3CCCC3)CC2)c([N+](=O)[O-])c1 (stereo unspecified) | inconclusive: 12.6 µM [quencher, side channel, partial curve] | –
46 | NC(=O)NC(=O)COC(=O)c1ccc2noc(-c3ccccc3)c2c1 | inconclusive: 5.62 µM [quencher, side channel, partial curve] | –
47 | O=C(c1[nH]ncc1[N+](=O)[O-])N1CCOCC1 | – | inactive: -3.36%
48 | COC(=O)Nc1ccc(S(=O)(=O)N2CCC(C)CC2)cc1 | – | inactive: -3.02%
49 | O=C(CNC(=O)c1ccccc1)N/N=C/c1ccc([N+](=O)[O-])s1 | inconclusive: 12.6 µM [quencher, side channel, partial curve] | –
50 | O=C(NNS(=O)(=O)c1ccc([N+](=O)[O-])cc1)c1cnn(-c2ccccc2)c1-n1cccc1 | inconclusive: 12.6 µM [quencher, side channel, partial curve] | –
51 | CC(C)N(Cc1ccccc1)C(=O)Cn1c(=O)cnc2ccccc21 | inconclusive: 14.1 µM [quencher, side channel, partial curve] | –
52 | Cc1ccccc1NCC(=O)c1ccc(Br)cc1 | inconclusive: 22.4 µM [quencher, side channel, single point] | –
53 | CN1CCN(c2cc(N3CCN(C(=O)c4ccco4)CC3)c3c4c(onc24)-c2ccccc2C3=O)CC1 | inconclusive: 7.94 µM [quencher, side channel, partial curve] | –
54 | Cc1n[nH]c(C)c1CCCCOc1ccccc1 | – | inactive: 3.89%
55 | O=[N+]([O-])c1ccc(C2=NN(CCO)C(=Nc3ccc(OC(F)(F)F)cc3)SC2)cc1 | inconclusive: 20 µM [quencher, side channel, partial curve, poor fit] | –
56 | CC(C(=O)N1CCCCC1)N(C)CC(=O)Nc1ccc(Cl)cc1 (stereo unspecified) | – | inactive: -5.84%
57 | CC(C)CNC(=O)NC1C(NC(=O)NCC(C)C)N(C)C(=O)N1C (stereo unspecified) | – | inactive: -6.15%
58 | COc1ccc(C(=O)NCCNc2ccc([N+](=O)[O-])cc2)cc1OC | inconclusive: 3.16 µM [quencher, side channel, full curve] | –
59 | O=c1c2ccccc2c(/C=N/c2n[nH]c(CCCO)n2)c(O)n1-c1ccccc1Cl | inconclusive: 14.1 µM [quencher, side channel, partial curve] | –
60 | COc1ccc(CCN2C(=O)CC(Nc3ccc(N4CCOCC4)cc3)C2=O)cc1OC (stereo unspecified) | inconclusive: 39.8 µM [quencher, side channel, single point] | –
61 | CN1CCc2c(sc(NC(=O)c3ccc(S(=O)(=O)N4CCCC4)cc3)c2C(N)=O)C1 | inconclusive: 28.2 µM [quencher, side channel, partial curve] | –
